{"source": "the supplement of paper PMC8728848", "assay_in_all_cases": "glycan array binding signal (z-score within array); higher = stronger binding", "details_in_all_cases": "glycan notation: IUPAC condensed, linker removed", "key": {"Fuc(a1-2)Gal": {"molecular_target": "Fuc(a1-2)Gal", "summary_of_the_method": "(§1)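 Negative Z-scores can be read as non-binding. The Z-score is calculated within each array and then averaged across arrays of one protein sequence at different concentrations or buffers and across linkers. Arrays, 3228 in all, were curated from the Consortium for Functional Glycomics database and kept only where the protein sequence was available.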"}, "Fuc(a1-2)Gal(b1-3)GalNAc": {"molecular_target": "Fuc(a1-2)Gal(b1-3)GalNAc", "summary_of_the_method": "as §1"}, "[1]": {"molecular_target": "Fuc(a1-2)Gal(b1-3)GalNAc(b1-3)Gal", "summary_of_the_method": "as §1"}, "[2]": {"molecular_target": "Fuc(a1-2)Gal(b1-3)GalNAc(b1-3)Gal(a1-4)Gal(b1-4)Glc", "summary_of_the_method": "as §1"}, "[3]": {"molecular_target": "Fuc(a1-2)Gal(b1-3)GalNAc(b1-4)[Neu5Ac(a2-3)]Gal(b1-4)Glc", "summary_of_the_method": "as §1"}, "Fuc(a1-2)Gal(b1-3)GlcNAc": {"molecular_target": "Fuc(a1-2)Gal(b1-3)GlcNAc", "summary_of_the_method": "as §1"}, "[4]": {"molecular_target": "Fuc(a1-2)Gal(b1-3)GlcNAc(b1-3)Gal(b1-4)Glc", "summary_of_the_method": "as §1"}, "[5]": {"molecular_target": "Fuc(a1-2)Gal(b1-3)[Fuc(a1-4)]GlcNAc", "summary_of_the_method": "as §1"}, "Fuc(a1-2)Gal(b1-4)Glc": {"molecular_target": "Fuc(a1-2)Gal(b1-4)Glc", "summary_of_the_method": "as §1"}, "Fuc(a1-2)Gal(b1-4)GlcNAc": {"molecular_target": "Fuc(a1-2)Gal(b1-4)GlcNAc", "summary_of_the_method": "as §1"}, "[6]": {"molecular_target": "Fuc(a1-2)Gal(b1-4)GlcNAc(b1-3)Gal(b1-4)GlcNAc", "summary_of_the_method": "as §1"}, "[7]": {"molecular_target": "Fuc(a1-2)Gal(b1-4)GlcNAc(b1-3)Gal(b1-4)GlcNAc(b1-3)Gal(b1-4)GlcNAc", "summary_of_the_method": "as §1"}, "[8]": {"molecular_target": "Fuc(a1-2)Gal(b1-4)[Fuc(a1-3)]GlcNAc", "summary_of_the_method": "as §1"}, "[9]": {"molecular_target": "Fuc(a1-2)Gal(b1-4)[Fuc(a1-3)]GlcNAc(b1-3)Gal(b1-4)[Fuc(a1-3)]GlcNAc", "summary_of_the_method": "as §1"}, "[10]": {"molecular_target": "Fuc(a1-2)Gal(b1-4)[Fuc(a1-3)]GlcNAc(b1-3)Gal(b1-4)[Fuc(a1-3)]GlcNAc(b1-3)Gal(b1-4)[Fuc(a1-3)]GlcNAc", "summary_of_the_method": "as §1"}, "Fuc(a1-2)GlcNAc": {"molecular_target": "Fuc(a1-2)GlcNAc", "summary_of_the_method": "as §1"}, "Fuc(a1-2)[Gal(a1-3)]Gal": {"molecular_target": "Fuc(a1-2)[Gal(a1-3)]Gal", "summary_of_the_method": "as §1"}, "[11]": {"molecular_target": "Fuc(a1-2)[Gal(a1-3)]Gal(b1-3)GlcNAc", "summary_of_the_method": "as §1"}, "[12]": {"molecular_target": "Fuc(a1-2)[Gal(a1-3)]Gal(b1-4)Glc", "summary_of_the_method": "as §1"}, "[13]": {"molecular_target": "Fuc(a1-2)[Gal(a1-3)]Gal(b1-4)GlcNAc", "summary_of_the_method": "as §1"}, "[14]": {"molecular_target": "Fuc(a1-2)[Gal(a1-3)]Gal(b1-4)[Fuc(a1-3)]GlcNAc", "summary_of_the_method": "as §1"}, "[15]": {"molecular_target": "Fuc(a1-2)[Gal(a1-4)]Gal(b1-4)GlcNAc", "summary_of_the_method": "as §1"}, "[16]": {"molecular_target": "Fuc(a1-2)[GalNAc(a1-3)]Gal", "summary_of_the_method": "as §1"}, "[17]": {"molecular_target": "Fuc(a1-2)[GalNAc(a1-3)]Gal(b1-3)GlcNAc", "summary_of_the_method": "as §1"}, "[18]": {"molecular_target": "Fuc(a1-2)[GalNAc(a1-3)]Gal(b1-4)Glc", "summary_of_the_method": "as §1"}, "[19]": {"molecular_target": "Fuc(a1-2)[GalNAc(a1-3)]Gal(b1-4)GlcNAc", "summary_of_the_method": "as §1"}, "[20]": {"molecular_target": "Fuc(a1-2)[GalNAc(a1-3)]Gal(b1-4)[Fuc(a1-3)]GlcNAc", "summary_of_the_method": "as §1"}, "[21]": {"molecular_target": "Fuc(a1-2)[GalNAc(a1-4)]Gal(b1-4)GlcNAc", "summary_of_the_method": "as §1"}, "[22]": {"molecular_target": "Fuc(a1-2)[GalNAc(b1-3)]Gal", "summary_of_the_method": "as §1"}, "Fuc(a1-3)GlcNAc": {"molecular_target": "Fuc(a1-3)GlcNAc", "summary_of_the_method": "as §1"}, "[23]": {"molecular_target": "Fuc(a1-3)[Gal(b1-4)]GlcNAc", "summary_of_the_method": "as §1"}, "[24]": {"molecular_target": "Fuc(a1-3)[Gal(b1-4)]GlcNAc(b1-4)Gal(b1-4)[Fuc(a1-3)]GlcNAc", "summary_of_the_method": "as §1"}, "[25]": {"molecular_target": "Fuc(a1-3)[Gal(b1-4)]GlcNAc(b1-4)Gal(b1-4)[Fuc(a1-3)]GlcNAc(b1-4)Gal(b1-4)[Fuc(a1-3)]GlcNAc", "summary_of_the_method": "as §1"}, "[26]": {"molecular_target": "Fuc(a1-3)[Gal3S(b1-4)]GlcNAc", "summary_of_the_method": "as §1"}, "[27]": {"molecular_target": "Fuc(a1-3)[GalNAc(b1-4)]GlcNAc", "summary_of_the_method": "as §1"}, "Fuc(a1-4)GlcNAc": {"molecular_target": "Fuc(a1-4)GlcNAc", "summary_of_the_method": "as §1"}, "Fuc(b1-3)GlcNAc": {"molecular_target": "Fuc(b1-3)GlcNAc", "summary_of_the_method": "as §1"}}, "note": "Some of the results follow.", "data": [{"binder": "SIGNR8 (Mus musculus) (protein) MAGEPEFHQSKNHEEEVTSGEQGFAEHDPEGLICSSKSLQGHLTQVPWLLLLLISLGLFLLMLATLVQVSRIRAYSQGQTQDQQGSSSLDKVAVPREQTHSGLEQIQQIQQQLTQFNASLAGLCRPCPWDWELFQGSCYLFSRTLGSWETSASSCEDLGAHLVIVNSVSEQRFMKYWNVRKNQRSWIGLSDHIHEGSWQWVDGSALKFSFWKEGEPNNDGDEDCVELFMDDWNDNKCTEQNFWVCEQPSAPCPHH", "values": [{"measurement": "glycan array binding signal (z-score)", "setting": "Fuc(a1-2)Gal", "result": -0.329}, {"measurement": "glycan array binding signal (z-score)", "setting": "Fuc(a1-2)Gal(b1-3)GalNAc", "result": -0.368}, {"measurement": "glycan array binding signal (z-score)", "setting": "[1]", "result": -0.395}, {"measurement": "glycan array binding signal (z-score)", "setting": "[2]", "result": -0.393}, {"measurement": "glycan array binding signal (z-score)", "setting": "[3]", "result": -0.379}, {"measurement": "glycan array binding signal (z-score)", "setting": "Fuc(a1-2)Gal(b1-3)GlcNAc", "result": -0.376}, {"measurement": "glycan array binding signal (z-score)", "setting": "[4]", "result": -0.385}, {"measurement": "glycan array binding signal (z-score)", "setting": "[5]", "result": -0.296}, {"measurement": "glycan array binding signal (z-score)", "setting": "Fuc(a1-2)Gal(b1-4)Glc", "result": -0.381}, {"measurement": "glycan array binding signal (z-score)", "setting": "Fuc(a1-2)Gal(b1-4)GlcNAc", "result": -0.367}, {"measurement": "glycan array binding signal (z-score)", "setting": "[6]", "result": -0.392}, {"measurement": "glycan array binding signal (z-score)", "setting": "[7]", "result": -0.387}, {"measurement": "glycan array binding signal (z-score)", "setting": "[8]", "result": -0.385}, {"measurement": "glycan array binding signal (z-score)", "setting": "[9]", "result": -0.372}, {"measurement": "glycan array binding signal (z-score)", "setting": "[10]", "result": -0.373}, {"measurement": "glycan array binding signal (z-score)", "setting": "Fuc(a1-2)GlcNAc", "result": -0.354}, {"measurement": "glycan array binding signal (z-score)", "setting": "Fuc(a1-2)[Gal(a1-3)]Gal", "result": 2.32}, {"measurement": "glycan array binding signal (z-score)", "setting": "[11]", "result": 1.41}, {"measurement": "glycan array binding signal (z-score)", "setting": "[12]", "result": 2.18}, {"measurement": "glycan array binding signal (z-score)", "setting": "[13]", "result": 2.94}, {"measurement": "glycan array binding signal (z-score)", "setting": "[14]", "result": 1.38}, {"measurement": "glycan array binding signal (z-score)", "setting": "[15]", "result": 3.32}, {"measurement": "glycan array binding signal (z-score)", "setting": "[16]", "result": -0.391}, {"measurement": "glycan array binding signal (z-score)", "setting": "[17]", "result": -0.363}, {"measurement": "glycan array binding signal (z-score)", "setting": "[18]", "result": -0.376}, {"measurement": "glycan array binding signal (z-score)", "setting": "[19]", "result": -0.386}, {"measurement": "glycan array binding signal (z-score)", "setting": "[20]", "result": -0.386}, {"measurement": "glycan array binding signal (z-score)", "setting": "[21]", "result": -0.372}, {"measurement": "glycan array binding signal (z-score)", "setting": "[22]", "result": -0.36}, {"measurement": "glycan array binding signal (z-score)", "setting": "Fuc(a1-3)GlcNAc", "result": -0.347}, {"measurement": "glycan array binding signal (z-score)", "setting": "[23]", "result": -0.382}, {"measurement": "glycan array binding signal (z-score)", "setting": "[24]", "result": -0.385}, {"measurement": "glycan array binding signal (z-score)", "setting": "[25]", "result": -0.399}, {"measurement": "glycan array binding signal (z-score)", "setting": "[26]", "result": -0.358}, {"measurement": "glycan array binding signal (z-score)", "setting": "[27]", "result": -0.369}, {"measurement": "glycan array binding signal (z-score)", "setting": "Fuc(a1-4)GlcNAc", "result": -0.387}, {"measurement": "glycan array binding signal (z-score)", "setting": "Fuc(b1-3)GlcNAc", "result": -0.383}]}]}
